We go through four compounds from PubChem BioAssay (NCI).

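Each compound was tested at five concentrations against cells in 96-well plates for 48 hours. GI50 = concentration required for 50% inhibition of growth.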 Some entries of the source have several records that differ or are many. The list is limited to them. The source may hold further records. For some assays here: Records of one sample usually come from different ranges of test concentrations, not given here; some values may only mark the edge of a range. For some assays here: The values listed for one entry are repeats across runs, samples, wells, individuals or studies. Marks in square brackets tell the records apart. Letters count within one entry.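 TGI is the concentration that stops growth completely.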 *1 amine or outer side, *2 acyl side, *3 side chain or, on linkers, in order; H or OH if unused. Where a SMILES comes first, the peptide text is derived from it. Bridges are numbered along the chain shown (N, C = ends). Roman numbers before positions name the chains, in order. [ ]: non-standard residue; d: D form. Actinocin(9to1) = Cc1c2oc3c(C)ccc(C(=O)[*:1])c3nc-2c(C(=O)[*:2])c(N)c1=O; NMeY = CN[CH](Cc1ccc(O)cc1)C(=O)O; Sar = CNCC(=O)O A value given as a limit tells only on which side of the number the result lay.

What is called TGI is the concentration at which net growth stops. A high value points to less potent growth arrest. By GI50 is commonly meant the concentration giving 50% growth inhibition. Higher therefore signals lower sensitivity of the cells.

What all share (test): DTP human tumour cell line panel, 48 h
Test [1] deals with HS 578T breast.
Test [2] deals with NCI-H460 lung.
Test [3] concerns MOLT-4 leukemia.
Test [4] has as its system A549 NSCLC.
Test [5] deals with OVCAR-8 ovarian.
The subject of test [6] is HOP-62 NSCLC.
Test [7] concerns U251 CNS.
Test [8] deals with HOP-92 NSCLC.
Test [9] concerns SW-620 colon.
Test [10] deals with SR leukemia.
The subject of test [11] is MALME-3M melanoma.
In test [12] the test system is ACHN renal.
The subject of test [13] is OVCAR-3 ovarian.
Test [14] has as its system 786-0 renal.
Test [15] concerns CAKI-1 renal.
In test [16] the test system is A498 renal.
Test [17] concerns T-47D breast.
Test [18] concerns RPMI-8226 leukemia.
The subject of test [19] is TK-10 renal.
Test [20] has as its system SK-MEL-28 melanoma.
Test [21] has as its system BT-549 breast.
In test [22] the test system is NCI-H226 lung.
For test [23], the system named is HT29 colon.
Test [24] concerns DU-145 prostate.
For test [25], the system named is MDA-MB-435.
Test [26] deals with PC-3 prostate.
Test [27] deals with CCRF-CEM leukemia.
The subject of test [28] is K-562 leukemia.
Test [29] has as its system MDA-MB-231 breast.
In test [30] the test system is LOX IMVI melanoma.
The subject of test [31] is SK-MEL-5 melanoma.
Test [32] concerns M14 melanoma.
The subject of test [33] is COLO 205 colon.
Test [34] concerns SF-295 CNS.
The subject of test [35] is HCT-116 colon.

`COc1cccc2c1C(=O)c1c(O)c3c(c(O)c1C2=O)C[C@@](O)(C(=O)CO)C[C@@H]3OC1CC(N)CC(C)O1` (some centres undefined): the TGI in test [1] is 317 nM and 4.33 µM; in test [3] it was 2 µM [mean of 6 tests] and 23.9 nM [mean of 7 tests]; in test [4], 279 nM and 8.6 µM. For the same compound, the GI50 is 5.06 nM, 20 nM [mean of 4 tests] and 1.21 nM [mean of 7 tests] in test [2]; 60.3 nM [mean of 6 tests] and 1.98 nM [mean of 7 tests] in test [3].

Regarding `Cc1c2oc3c(C)ccc(C(=O)NC4C(=O)NC(C(C)C)C(=O)N5CCCC5C(=O)N(C)CC(=O)N(C)C(Cc5ccc(O)cc5)C(=O)OC4C)c3nc-2c(C(=O)NC2C(=O)NC(C(C)C)C(=O)N3CCCC3C(=O)N(C)CC(=O)N(C)C(Cc3ccc(O)cc3)C(=O)OC2C)c(N)c1=O` (centres undefined) (I: TVP[Sar][NMeY] / II: TVP[Sar][NMeY]; ester I:1-I:C, II:1-II:C; linker I:N-II:N via Actinocin(9to1); configuration not given here), the GI50 in [5] is 120 nM [sample A, mean of 2 tests] and 3.62 nM [sample B, mean of 2 tests]; in [6], 100 nM [sample A, 1 test] and 3.15 nM [sample B, 1 test]; in [7], 7.72 nM [sample A, mean of 2 tests] and 0.464 nM [sample B, 1 test]; in [8] it was 132 nM [sample A, mean of 2 tests] and 11.6 nM [sample B, mean of 2 tests]; in test [9], 89.5 nM [sample A, mean of 2 tests] and 4.59 nM [sample B, mean of 2 tests]; in test [10], 3.18 nM [sample A, mean of 2 tests] and 0.306 nM [sample B, mean of 2 tests]. Moreover, the GI50 is 57.3 nM [sample A, 1 test] and 3.33 nM [sample B, 1 test] in test [11]; 139 nM [sample A, mean of 2 tests] and 3.7 nM [sample B, mean of 2 tests] in test [12]; 42.7 nM [sample A, mean of 2 tests] and 2.92 nM [sample B, mean of 2 tests] in test [14]; > 368 nM [sample A, mean of 2 tests] and 21.8 nM [sample B, mean of 2 tests] in [15]; 181 nM [sample A, mean of 2 tests] and 10.7 nM [sample B, mean of 2 tests] in test [16]. For the same compound, the TGI in test [6] is 772 nM [sample A, 1 test] and 49.4 nM [sample B, 1 test]; in test [13], 617 nM [sample A, mean of 2 tests] and 38.3 nM [sample B, mean of 2 tests].

Regarding `C[N+](C)(C)CC1CCCc2ccccc2C1=O` (centres undefined), the TGI in test [17] was 3.56 µM and 36.8 µM; in test [18], 6.16 µM and 43.6 nM.

In the case of `COC(=O)C[C@](O)(CCCC(C)(C)O)C(=O)O[C@@H]1C(OC)=C[C@]23CCCN2CCc2cc4c(cc2[C@H]13)OCO4`, the TGI in test [5] is 1.05 µM [sample A] and 101 nM [sample B]; in test [17] it was 14 µM [sample A] and 228 nM [sample B]; in test [19] it was 9.54 µM [sample A] and 198 nM [sample B]; in [20], 646 nM [sample A] and 63.8 nM [sample B]; in test [21] it was 18.8 µM [sample A] and 81.2 nM [sample B]; in test [22], 472 nM [sample A] and 42.4 nM [sample B]. In addition, the TGI was 827 nM [sample A] and 60.5 nM [sample B] in [23]; 13 µM [sample A] and 89.1 nM [sample B] in test [1]; 3.75 µM [sample A] and 212 nM [sample B] in [24]; > 25 µM [sample A] and 126 nM [sample B] in test [25]; > 25 µM [sample A] and 227 nM [sample B] in test [26]; 207 nM [sample A] and > 100 µM [sample B] in test [27]. Further, the TGI in test [28] was 1.57 µM [sample A] and > 100 µM [sample B]; in test [29], 9.19 µM [sample A] and 412 nM [sample B]; in test [30], 438 nM [sample A] and 35.5 nM [sample B]; in test [31], 587 nM [sample A] and 40 nM [sample B]; in test [32], 10 µM [sample A] and 59.9 nM [sample B]; in test [33], 1.14 µM [sample A] and 114 nM [sample B]. Besides, the TGI in test [13] is 1.05 µM [sample A, mean of 8 tests] and 91.2 nM [sample B, mean of 2 tests]; in test [14] it was 3.92 µM [sample A] and 168 nM [sample B]; in test [3], 71.6 nM [sample A] and > 58.7 µM [sample B]; in [34], 922 nM [sample A] and 89.7 nM [sample B]; in test [35] it was 927 nM [sample A, mean of 8 tests] and 60.9 nM [sample B, mean of 2 tests]; in test [4], 1.24 µM [sample A, mean of 8 tests] and 108 nM [sample B, mean of 2 tests].
